Test results from PubChem BioAssay AID1030 (National Center for Advancing Translational Sciences (NCATS), 2008).
About 16,000 (7.3%) of roughly 220,000 compounds were called active. The shares of active, inactive and inconclusive entries below differ from those in the screen. Calls come from the whole dose curve; as a rule, active = well fitted inhibition curve with a large enough effect (not every such curve was filed as active); inconclusive = small, poorly fitted or top-dose-only effect, or another doubt; inactive = no such curve, though single readings can be large or run the other way. Potencies of inconclusive entries are doubtful fits and often do not repeat.

These compounds were tested against Aldehyde dehydrogenase 1A1 (Homo sapiens) (UniProt P00352) (assay: qHTS Assay for Inhibitors of Aldehyde Dehydrogenase 1 (ALDH1A1)). Conditions: Purified ALDH1A1, NADH fluorescence, propionaldehyde substrate; series mostly up to 75.3 µM.
Potency is the fitted concentration of half-maximal effect; tags give direction and shape of the fitted curve.

Sequence of UniProt P00352 (P00352 whole entry, looked up): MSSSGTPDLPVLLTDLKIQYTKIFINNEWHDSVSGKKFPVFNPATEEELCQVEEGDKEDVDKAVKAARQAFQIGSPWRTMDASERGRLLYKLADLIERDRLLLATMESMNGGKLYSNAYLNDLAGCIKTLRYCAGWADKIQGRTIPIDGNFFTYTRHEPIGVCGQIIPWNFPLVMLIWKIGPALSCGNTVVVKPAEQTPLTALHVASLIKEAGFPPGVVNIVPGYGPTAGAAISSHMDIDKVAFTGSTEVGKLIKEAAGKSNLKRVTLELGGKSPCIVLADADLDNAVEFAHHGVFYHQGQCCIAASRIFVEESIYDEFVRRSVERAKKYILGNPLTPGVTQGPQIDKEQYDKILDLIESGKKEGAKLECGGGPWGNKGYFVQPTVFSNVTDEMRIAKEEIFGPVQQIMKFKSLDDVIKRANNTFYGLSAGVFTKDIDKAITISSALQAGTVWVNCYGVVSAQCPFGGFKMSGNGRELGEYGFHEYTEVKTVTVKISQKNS

Potency, active:
COc1ccc(C2N(c3cc(Cl)ccc3OC)C(=O)C3CCCN32)cc1 (stereo not drawn) 10 µM
CCOC(=O)c1ccc(NC(=O)CSCc2ccco2)cc1 2.24 µM
Cc1ccccc1NNC(N)=S 22.4 µM
COc1ccc2c(c1)CCc1c(C(=O)N3CCCC3)noc1-2 10 µM
O=C(CC12CC3CC(CC(C3)C1)C2)NC(=S)N1CCCCC1 20 µM
COc1ccc(NC(=O)COC(=O)c2ccc(S(=O)(=O)N(C)c3ccccc3OC)cc2)c(OC)c1 7.08 µM
O=C(O)c1cc(NN=Nc2ccc(Br)cc2)cc([N+](=O)[O-])c1 6.31 µM
CC(=O)C1=C(O)C(=O)N(C2CCCCC2)C1c1ccccc1 (stereo not drawn) 22.4 µM
CC(C)[C@H](NC(=O)c1ccco1)C(=O)OCC(=O)N1CC(=O)Nc2ccccc21 14.1 µM
N#CC(c1ccc(Cl)nn1)c1ccc(Cl)cc1Cl (stereo not drawn) 6.31 µM
O=C(CCSc1ccccn1)c1ccccc1 0.251 µM

Potency, inconclusive:
Cc1ccc2c(c1)cc(CN(Cc1ccco1)S(=O)(=O)c1ccccc1)c1nnnn12 22.4 µM [inhibitor, single point]
O=C(NCc1ccccc1)/C(=C/c1ccc(OC(F)F)cc1)c1ccccc1 22.4 µM [inhibitor, single point]
CCN(CC)CCN(C)Cc1ccc(Br)cc1 7.94 µM [inhibitor, full curve]
COc1ccc(NC(=S)Nc2nc(CC(=O)Nc3ccccc3OC)cs2)cc1 39.8 µM [inhibitor, single point]
CC1(NC(=O)NCc2ccco2)CCS(=O)(=O)C1 (stereo not drawn) 39.8 µM [inhibitor, single point]
C=CSc1sc(Cl)c(N2CCOCC2)c1[N+](=O)[O-] 39.8 µM [inhibitor, single point]
O=C(CCCn1c(SCC(=O)c2ccccc2)nc2ccccc2c1=O)NCC1CCCO1 (stereo not drawn) 35.5 µM [inhibitor, partial curve, poor fit]
COc1ccc(C(C#N)Nc2ccccc2)cc1 (stereo not drawn) 15.8 µM [inhibitor, partial curve, poor fit]
CC(Nc1cc(N2CCN(S(C)(=O)=O)CC2)ccc1[N+](=O)[O-])c1ccccc1 (stereo not drawn) 39.8 µM [inhibitor, single point]
CSc1nnc(-c2ccccc2)n1N 39.8 µM [inhibitor, single point]
Cc1nc(NC(=O)/C=C/c2ccccc2)sc1C(=O)Nc1cccc(Cl)c1 35.5 µM [inhibitor, single point]
Cc1ccc(O)c(C(=O)c2cnc3c(c2)COc2ccccc2-3)c1 12.6 µM [inhibitor, partial curve]
C=CCSc1nnc2c(n1)OC=Nc1ccc(Br)cc1-2 39.8 µM [inhibitor, single point]
O=C(CNS(=O)(=O)c1cccc2nsnc12)NCc1ccc(Cl)cc1 39.8 µM [inhibitor, single point]
CC(C)(C)C1CCC2(CC1)NC(=S)N(c1ccccc1)N2 (stereo not drawn) 35.5 µM [inhibitor, single point]
C=CC[n+]1ccc(/C=C2\C=Cc3cc(C)ccc3N2CC)c2ccccc21 28.2 µM [inhibitor, single point]
COC(=O)c1cc(Br)c(=O)n(CCC2=CCCCC2)c1 22.4 µM [inhibitor, single point]
CC(=O)N1CCC2(CC1)C/C(=N\NC(=S)Nc1ccccc1F)c1cc(O)ccc1O2 28.2 µM [inhibitor, partial curve]
O=C(c1ccccc1)N1CCN(C2CC(=O)N(CCc3ccccc3)C2=O)CC1 (stereo not drawn) 35.5 µM [inhibitor, single point]
Cc1cc(C(=O)NCc2ccccc2)c(=O)[nH]c1C 22.4 µM [inhibitor, partial curve]
COc1ccc(C(=O)Nc2ccc(N3CCOCC3)cc2)cc1OC 31.6 µM [inhibitor, single point]
O=C(NNC(=O)c1cccnc1)Nc1cccc2ccccc12 20 µM [inhibitor, partial curve]
O=C(CSc1ncccc1-c1nc2ccccc2[nH]1)NCc1ccco1 25.1 µM [inhibitor, partial curve]
O=C(O)CCCC(=O)Nc1ccc(Sc2ccc([N+](=O)[O-])cc2)cc1 6.31 µM [inhibitor, full curve]
CCN(C(=O)C(C)OC(=O)C1C(C(=O)OC)=C(C)NC(C)=C1C(=O)OC)c1ccccc1 (stereo not drawn) 3.16 µM [inhibitor, full curve]
O=C(NC1CCCC1)C(c1ccncc1)N(Cc1ccco1)C(=O)c1ccc(-c2ccccc2)[nH]1 (stereo not drawn) 39.8 µM [inhibitor, single point]
COc1ccc(C(c2nnnn2Cc2ccccc2)N2CCN(c3nc4ccccc4s3)CC2)cc1 (stereo not drawn) 20 µM [inhibitor, single point]
CCOC(=O)c1cc(-c2ccncc2)nc2c1c(C)nn2-c1ccccn1 28.2 µM [inhibitor, single point]
COc1cccc2cc(C(=O)NCC3CCCO3)c(=O)oc12 (stereo not drawn) 25.1 µM [inhibitor, partial curve]
O=C1/C(=C\Nc2ccc(OC(F)(F)F)cc2)CCN1c1ncccn1 31.6 µM [inhibitor, partial curve]
O=C(/C=C/c1ccccc1)Nc1ccc(Br)cn1 3.16 µM [inhibitor, single point]
Cc1ccc(Oc2c(C(N)=O)cc([N+](=O)[O-])cc2[N+](=O)[O-])cc1 35.5 µM [inhibitor, single point]
CCN(C(=O)COC(=O)c1ccccc1Nc1cccc(C)c1C)C1CCS(=O)(=O)C1 (stereo not drawn) 25.1 µM [inhibitor, single point]
Cc1ccc(C(=O)Nc2ccc(C(=O)N3CCCCC3)cc2)cc1 25.1 µM [inhibitor, single point]
CC1CCC(C(C)C)C(OP(=O)(c2ccccc2)C(O)c2ccncc2)C1 (stereo not drawn) 39.8 µM [inhibitor, single point]
CC(=O)c1cccc(NC(=O)CCC2CCCC2)c1 15.8 µM [inhibitor, partial curve]
O=C(CSCc1c(Cl)cccc1Cl)Nc1ccc2c(c1)OCO2 25.1 µM [inhibitor, single point]
COc1ccc(C)cc1NC(=O)c1cc2ccccc2cc1OCC(=O)NCc1ccco1 35.5 µM [inhibitor, partial curve]
O=C(CSc1ccsc1[N+](=O)[O-])N1CCN(c2ccccc2)CC1 7.08 µM [inhibitor, single point]
CCCCN(C(=O)CNC(=O)c1cccs1)C(C(=O)NC1CCCC1)c1ccncc1 (stereo not drawn) 37.7 µM [inhibitor, single point]
CCC(=O)c1cc(F)ccc1OCC(=O)N1CCN(c2ccc(F)cc2)CC1 28.2 µM [inhibitor, partial curve]
N#C/C(=C\C1CC2C=CC1C2)c1nc2ccccc2[nH]1 (stereo not drawn) 3.16 µM [inhibitor, full curve]
COc1ccc(CN2CCN(C(=O)c3ccc(-c4ccccc4)cc3)CC2)c(OC)c1OC 39.8 µM [inhibitor, single point]
CCOc1ccc(NC(=S)NC(=O)/C=C/c2ccc(C)cc2)c([N+](=O)[O-])c1 8.91 µM [inhibitor, single point]

Potency, inactive:
CCOCCc1nnc(NC(=O)Cc2c(F)cccc2Cl)s1
Cc1cc(C)n(CC(O)COc2c(C)cccc2C)n1 (stereo not drawn)
CC1(C)CC(=O)/C(=C(/O)CCCN2C(=O)c3ccccc3C2=O)C(=NC(C)(C)C)C1
O=C(CCSc1nnc2scc(-c3ccccc3)n12)NCc1ccc2c(c1)OCO2
O=S(=O)(CCn1cccc1)CCn1cccc1
CCn1c(SCC(=O)NNC(=O)c2ccc(OC)cc2)nnc1-c1cccnc1
COc1ccc(S(=O)(=O)NNC(=O)c2cc3ccccc3o2)cc1
CC(C(=O)OCC(=O)Nc1ccc(S(=O)(=O)N2CCCCC2)cc1)N1C(=O)c2ccccc2C1=O (stereo not drawn)
CCOC(=O)Cc1nc(-c2ccc(Cl)cc2)n[nH]1
Cc1cc(F)ccc1S(=O)(=O)Nc1ncnc2scc(-c3ccc(F)cc3)c12
O=C(/C=C/c1ccccc1Cl)Nn1cnc2ccccc2c1=O
O=C(CC(=O)c1ccccc1O)c1ccc(F)cc1
O=C(CC1NCCN(Cc2ccccc2)C1=O)Nc1ccccc1 (stereo not drawn)
CN(c1ccc(C(=O)Nc2ccc3c(c2)OCCO3)cc1)S(C)(=O)=O
CC(=O)N1c2ccc(S(=O)(=O)CCC(=O)O)cc2CC1C (stereo not drawn)
CCNC(=S)NNC(=O)c1ccc(OC(F)F)cc1
Cc1ccccc1NC(=S)N=Nc1c(O)n(C)c2ccc(S(=O)(=O)N3CCOCC3)cc12
Oc1ccc(Nc2nnc(-c3ccc(O)cc3)c3ccccc23)cc1
